In the RNAGym collection of RNA variant scans (doi:10.7554/elife.90254):
Read counts are not given, so values of variants with three or more changes are uncertain.

B1: LINE1-mini (parent)
chain: GGCAGAGCUCAACACAGCGUGGCAAAGUGGCUGUGGCUAGACUGCC

Variants of: B1
Test: self-cleavage, relative activity (ratio to wild type); higher = more cleavage; in vitro, sequencing; the parent is a self-cleaving ribozyme
Variant A25C G27U C31U has a self-cleavage of 0.14.
Variant A26U C37A A39G has a self-cleavage of 0.04.
In the case of G29U A41G C46A, the self-cleavage is reported as 0.09.
G27A G30U A41C showed a self-cleavage of 0.08.
G29U G35C G36A gave a self-cleavage of 0.19.
G27C U28A G33C U38C gave a self-cleavage of 0.04.
Work on G27C U34G G36C yielded a self-cleavage of 0.06.
With A26G G29U U38A the self-cleavage was 0.96.
Variant U28A C42A C46U has a self-cleavage of 0.21.
For G27A G29C G33U G35A C37A, the self-cleavage was 0.03.
Variant G29C G30A C37A G40A has a self-cleavage of 0.13.
With G29A G30A G35C C42G the self-cleavage was 0.05.
G27C C37U A39U G40C showed a self-cleavage of 0.37.
Work on A26G U43G C46A yielded a self-cleavage of 0.02.
In the case of A25U C37A U38G, the self-cleavage is reported as 0.01.
In the case of U28G G30A A39G, the self-cleavage is reported as 0.02.
A25C G30A C42A showed a self-cleavage of 0.04.
A25C C37A A41U G44U gave a self-cleavage of 0.07.
With G29A C31A C46A the self-cleavage was 0.27.
With U28A U32C G40U the self-cleavage was 0.15.
With A26U G33C G35C C45G the self-cleavage was 0.05.
Variant A26U G27C A41G has a self-cleavage of 0.15.
A26C U32G G40C gave a self-cleavage of 0.03.
Work on G29U A39G C42G G44A C45G yielded a self-cleavage of 0.05.
A25U C31A U34G showed a self-cleavage of 0.07.
Work on G27A U28C G30C G35U C42U yielded a self-cleavage of 0.05.
Work on G29U G33C G36U yielded a self-cleavage of 0.08.
Variant A26G C45G C46A has a self-cleavage of 0.13.
Variant U28G G33A C46A has a self-cleavage of 0.01.
A26U G30A G33A gave a self-cleavage of 0.15.
A25G A26U G33A gave a self-cleavage of 0.1.
With U28A A41U C46A the self-cleavage was 0.29.
For G29A C37G U38G, the self-cleavage was 0.01.
Work on A26G C37A G44C yielded a self-cleavage of 0.05.
With G27A G36U A41G the self-cleavage was 0.03.
For U28G U38G C46A, the self-cleavage was 0.02.
In the case of A26C G30U G36A, the self-cleavage is reported as 1.66.
With G27C C37G G40A C46U the self-cleavage was 0.05.
For A25U G40A C42G, the self-cleavage was 0.02.
A26U U32A G36A gave a self-cleavage of 0.03.
U28C G29U C37A U38C C45A C46U gave a self-cleavage of 0.03.
For A25G U34A G36C, the self-cleavage was 0.04.
Work on A26G G30C U34A yielded a self-cleavage of 0.03.
A25U C31A U43C gave a self-cleavage of 0.21.
For A25U C31A G35C, the self-cleavage was 0.01.
A26U G30U G36A C42A showed a self-cleavage of 0.01.
With U28A C31A G44C the self-cleavage was 0.08.
In the case of A25G G36C G44A, the self-cleavage is reported as 0.03.
Variant G29C U43G G44U has a self-cleavage of 0.04.
With G29U G33U U43G the self-cleavage was 0.
G27A C31G U32G G36C A41G C42A showed a self-cleavage of 0.07.
For A25U G27U C37U U38A, the self-cleavage was 0.01.
For A25U U32A C37U, the self-cleavage was 0.08.
In the case of G27C G35A C45A, the self-cleavage is reported as 0.09.
For U28G U32C C42U, the self-cleavage was 0.04.
Variant G27C G36U G40C A41U has a self-cleavage of 0.13.
G29A G44U C45U gave a self-cleavage of 0.09.
In the case of A25U U34C C42A U43G, the self-cleavage is reported as 0.03.
For A26C U28G U38G, the self-cleavage was 0.
Variant A26G G30C C37A U38C has a self-cleavage of 0.05.
A25C U28C A39U A41U C42G gave a self-cleavage of 0.04.
With A25U G35A G36U A41U the self-cleavage was 1.23.
For A25C G40C U43A, the self-cleavage was 0.02.
A25C G29A G30U C31A U34A G40C gave a self-cleavage of 0.05.
For A25C C42G C45A C46U, the self-cleavage was 0.01.
With A26C U28G C45A the self-cleavage was 0.31.
A25C U43C C45G gave a self-cleavage of 0.06.
In the case of A25G G36A U38C C45U, the self-cleavage is reported as 0.37.
Work on U28A C37G U38C yielded a self-cleavage of 0.
For A26C G33C U43A C45U, the self-cleavage was 0.02.
A25U G29A C37U gave a self-cleavage of 0.04.
A25G G35C C45U showed a self-cleavage of 0.06.
With U28C G36A A39G G40U the self-cleavage was 0.05.
Work on A25C G40U C42U yielded a self-cleavage of 0.04.
With G27U C37U C42U the self-cleavage was 0.07.
Work on A25U A39U C42G yielded a self-cleavage of 0.02.
Work on U28A C37U G44A C45U yielded a self-cleavage of 0.03.
For G29A U34C G36C C37U C45A, the self-cleavage was 0.02.
In the case of G29A U34G C46U, the self-cleavage is reported as 0.28.
A25U A26U C31G A39U A41U showed a self-cleavage of 0.03.
For A25U C31G U38G C45G, the self-cleavage was 0.02.
Work on A26G C31A G35U yielded a self-cleavage of 0.42.
G27A C31U G33U showed a self-cleavage of 0.01.
U28G G36U U43C G44A gave a self-cleavage of 0.14.
With A26C G35C G40U the self-cleavage was 0.04.
For A26U G35C G36U, the self-cleavage was 0.06.
Variant A25G G30A C37A has a self-cleavage of 0.08.
A25G C31A G33A showed a self-cleavage of 0.02.
G27A G35U C37G showed a self-cleavage of 0.02.
G27U G44A C46G showed a self-cleavage of 0.
In the case of A26C U28C C45G, the self-cleavage is reported as 0.04.
G29C G30C U38G gave a self-cleavage of 0.01.
In the case of U28A G35C C46A, the self-cleavage is reported as 0.06.
Work on A25G G29U U32C G35U U38A yielded a self-cleavage of 0.02.
For A25U G33A C37A, the self-cleavage was 0.09.
In the case of A25U C31G C46G, the self-cleavage is reported as 0.05.
Work on G29A C31A G44C yielded a self-cleavage of 0.1.
For A25C G27C G29A G35A G40C, the self-cleavage was 0.05.
Work on A26G G33A G44A yielded a self-cleavage of 0.05.
Variant G27C G33U A41C has a self-cleavage of 0.35.
Variant A25U A26G C31U has a self-cleavage of 0.03.
With G27C G35U C42A the self-cleavage was 0.01.
In the case of A26G G33U G35U, the self-cleavage is reported as 0.14.
With A26G G33C A39C C42G the self-cleavage was 0.03.
G29A C37G C42U C45A showed a self-cleavage of 0.16.
Work on G27A U32A C42G yielded a self-cleavage of 0.08.
Work on G29U C37G G40U yielded a self-cleavage of 0.1.
Work on G27U U32A U34G yielded a self-cleavage of 0.02.
Work on G29A G40C C46U yielded a self-cleavage of 0.01.
U28C U38A C42U gave a self-cleavage of 0.04.
In the case of G27C G29C U43A, the self-cleavage is reported as 0.06.
Work on U28A G30A G36A yielded a self-cleavage of 0.24.
With A25G U34C G44A C45U the self-cleavage was 0.28.
G27U C37U C46A gave a self-cleavage of 0.03.
Work on U28G U34A C37U U38C C46U yielded a self-cleavage of 0.02.
For A26G C31A G33A G36U C37G, the self-cleavage was 0.17.
For A26U G44A C45U, the self-cleavage was 0.05.
Work on G29A C31U C45U yielded a self-cleavage of 1.01.
G29C G36U C45G C46G showed a self-cleavage of 0.07.
In the case of G27C G35C C37G G40C, the self-cleavage is reported as 0.09.
Work on A25C G30U C37U yielded a self-cleavage of 0.05.
With A26G A41C G44U the self-cleavage was 0.02.
For A26C G29A U34A A41G, the self-cleavage was 0.17.
For G27A C31A G35A, the self-cleavage was 0.03.
With A25U G33A U43A the self-cleavage was 0.13.
A25U G30U G40U gave a self-cleavage of 0.05.
Variant G29U G35C U38C C46U has a self-cleavage of 0.09.
In the case of A25G G27U U34A G35A, the self-cleavage is reported as 0.04.
Variant G27U G30C U38C G40A has a self-cleavage of 0.02.
A26C U28C C37U gave a self-cleavage of 0.
Variant U28A U32G C37A A41U has a self-cleavage of 0.03.
Work on G27U G35C C37A U38G yielded a self-cleavage of 0.
With A26C G29A U32C C37A the self-cleavage was 0.1.
G27U G30A G44U gave a self-cleavage of 0.4.
For A25C U28A U43A, the self-cleavage was 0.01.
For G29C G30C G33C, the self-cleavage was 0.01.
G27C U28G U32A C37U gave a self-cleavage of 0.03.
With A25G G33C A39G the self-cleavage was 0.03.
A26G G40U A41G C45G showed a self-cleavage of 0.06.
Work on G29U C31A G35A U38C yielded a self-cleavage of 0.03.
Work on G27U G30U G35U U38G A41C yielded a self-cleavage of 0.02.
Work on A26U G36C C42A yielded a self-cleavage of 0.12.
For G27A G29A G36A, the self-cleavage was 0.09.
For A25U U28C C45A, the self-cleavage was 0.26.
For A26U C31A C46A, the self-cleavage was 0.02.
Variant G27C G36U C42G U43G has a self-cleavage of 0.02.
Variant A25G G29U G35C has a self-cleavage of 0.01.
Work on A26G G36C A41U yielded a self-cleavage of 0.4.
A25G A39C C45G showed a self-cleavage of 0.03.
A26C G29A C31U showed a self-cleavage of 0.5.
A26U G30C U32A showed a self-cleavage of 0.22.
Work on U28G G36U C37A U43A yielded a self-cleavage of 0.12.
In the case of G27C G36A C37U, the self-cleavage is reported as 0.02.
A25G G30A G40U C45A showed a self-cleavage of 0.03.
With G27A G33C C37U A39C the self-cleavage was 0.03.
For G27C G30C C42G, the self-cleavage was 0.01.
With G27C U34A G36U C45U the self-cleavage was 0.05.
Variant A26G C31G U43A has a self-cleavage of 0.03.
Work on A25U G29A C46A yielded a self-cleavage of 1.02.
Variant A25G U32G G35U has a self-cleavage of 0.01.
G29U G33A G35U G36U C42U gave a self-cleavage of 0.03.
Variant A25U G27U A39C has a self-cleavage of 0.25.
Work on G29A A39U G40A yielded a self-cleavage of 0.08.
Variant A26G G29C C42G has a self-cleavage of 0.
For A26G U34G G40U, the self-cleavage was 0.01.
For A26U C31U U38G C45A, the self-cleavage was 0.01.
In the case of A26C G27A A41U, the self-cleavage is reported as 0.24.
